These results are taken from PubChem BioAssay AID488969 (Vanderbilt High Throughput Screening Facility, 2010).

Over roughly 110,000 compounds, “z-score” has its median near -0.1; the highest 2% begin near 2. The list shows a part of the results. Activity calls are given as the source filed them.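 How the source made its calls: active means z-score in the third read window above 3 or below -3; inactive means the rest.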

The experiment addresses Metabotropic glutamate receptor 8 (Rattus norvegicus) (UniProt P70579). As to the kind of experiment: mGluR8 Gi/Go-coupled signaling modulation – cell-based, rat, thallium flux, HTS, primary screen (AID 488969). The conditions noted are these: HEK293 rat mGluR8, GIRK (G protein-gated inwardly rectifying potassium channel) thallium flux, FluoZin2; at 10 µM; stronger effect = higher value; submaximal glutamate (EC20) added with thallium.
UniProt P70579, sequence (P70579 whole entry, looked up): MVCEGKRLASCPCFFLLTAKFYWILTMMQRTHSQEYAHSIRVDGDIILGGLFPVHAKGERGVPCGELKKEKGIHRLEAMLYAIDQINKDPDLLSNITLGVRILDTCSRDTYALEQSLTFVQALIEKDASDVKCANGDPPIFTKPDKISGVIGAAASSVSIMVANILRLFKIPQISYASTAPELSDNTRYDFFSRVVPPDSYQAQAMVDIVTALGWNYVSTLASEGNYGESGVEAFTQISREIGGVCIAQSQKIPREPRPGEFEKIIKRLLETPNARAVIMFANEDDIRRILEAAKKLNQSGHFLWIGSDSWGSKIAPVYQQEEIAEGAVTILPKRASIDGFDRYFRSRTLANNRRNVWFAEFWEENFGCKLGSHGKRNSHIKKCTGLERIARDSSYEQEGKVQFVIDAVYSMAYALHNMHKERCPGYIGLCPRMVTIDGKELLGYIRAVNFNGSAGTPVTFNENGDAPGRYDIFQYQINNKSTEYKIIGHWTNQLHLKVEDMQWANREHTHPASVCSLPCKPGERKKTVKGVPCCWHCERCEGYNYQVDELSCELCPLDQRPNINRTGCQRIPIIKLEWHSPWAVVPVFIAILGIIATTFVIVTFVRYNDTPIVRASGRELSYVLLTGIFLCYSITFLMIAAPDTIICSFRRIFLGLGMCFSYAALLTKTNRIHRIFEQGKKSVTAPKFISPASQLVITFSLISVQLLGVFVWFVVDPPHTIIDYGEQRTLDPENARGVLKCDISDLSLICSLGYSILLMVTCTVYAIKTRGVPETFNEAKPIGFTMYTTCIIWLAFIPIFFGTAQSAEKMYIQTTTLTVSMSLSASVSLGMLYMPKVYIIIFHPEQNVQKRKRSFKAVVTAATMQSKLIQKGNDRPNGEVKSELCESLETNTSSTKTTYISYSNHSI
As for `O=c1oc2ccc3ccccc3c2c2c1SC(C(F)(F)F)C2` (configuration not stated), the z-score is -0.243.

In the case of `CCn1nnnc1SCC(=O)c1ccc(NC(C)=O)cc1`, the z-score was -0.32.

For `O=C(Nc1ccccc1Cc1ccccc1)c1ccc2c(c1)SC1=NS(=O)(=O)CCN12`, the z-score turned out to be 0.079.

As to `CC(C(=O)NC1CCCCCC1)N(c1ccccc1)S(C)(=O)=O` (configuration not stated), the z-score was -0.247.

`CC1=CC(C)(C)n2c(O)c(C3=NC(=S)NC3=O)c3cc(OC(=O)c4cccc5ccccc45)cc1c32`: the z-score is 0.0745.

Take `CC(=O)NNc1ccc(C(F)(F)F)cc1[N+](=O)[O-]`: the z-score was determined as 0.121.

On to `COc1cc(C(N)=O)cc(Br)c1OCc1ccccc1`, for which the z-score is -0.202.

`Cc1ccc(OCC(=O)Nc2cccc(S(=O)(=O)N3CCCCC3)c2)c([N+](=O)[O-])n1` showed a z-score of 0.216.

Compound `Cc1cccc(C)c1NS(=O)(=O)c1c(C)[nH]c(=O)[nH]c1=O` displayed a z-score of 0.567.

Regarding `CC(OC(=O)/C=C/c1ccco1)C(=O)Nc1cccc([N+](=O)[O-])c1` (configuration not stated), the z-score is -0.214.

`N#Cc1c(-c2ccco2)cc(-c2cccnc2)nc1N`: the z-score is -0.682.

Take `C=CCOC(=O)Nc1snnc1C`: the z-score is -0.148.

Turning to `CN(C)/C=C1\N=C(c2ccc3c(c2)OCO3)OC1=O`, the z-score is -0.144.

`COc1ccc(F)cc1S(=O)(=O)N1CCCN(S(=O)(=O)c2cc(F)ccc2OC)CC1` came in with a z-score of 0.471.

`C=CCNc1ncnc2c1[nH]c1ccc(Cl)cc12`: the z-score is -0.349.

`CCCCC(=O)Nc1ccc(NC(=O)C2CC2)nc1` gave a z-score of 0.252.

Regarding `CC(=O)c1cccc(N(C(=O)c2cnccn2)C(C(=O)NCc2ccccc2)c2ccco2)c1` (configuration not stated), the z-score came out at 0.223.

For the compound `Cc1c(C(O)CN2CCN(Cc3ccc4c(c3)OCO4)CC2)c2ccccc2n1C` (configuration not stated), the z-score is -0.173.

Turning to `Cc1ccccc1NC(=O)COC(=O)CNC(=O)c1sc2ccccc2c1Cl`, the z-score was -1.08.

Take `CCCCOc1ccc(C(=O)Nn2cnnc2)cc1`: the z-score was -0.26.

`COc1ccc(-c2nc(CS(=O)CC(=O)NCc3cccnc3)c(C)o2)cc1OC` (configuration not stated) yielded a z-score of 0.196.

Compound `COc1ccc2c(C)nc(Nc3nc(C)cc(C)n3)nc2c1` displayed a z-score of 0.0553.

`COc1cc(OC)cc(C(=O)NC(=S)N2CCN(c3ccc(C(F)(F)F)cc3[N+](=O)[O-])CC2)c1`: the z-score is active: 4.05.

Compound `Cc1noc(NS(=O)(=O)c2ccc(N3Cc4ccccc4C3=O)cc2)c1C` yielded a z-score of 0.00277.

Consider `CC1=C(C(N)=O)C(c2ccccc2)n2nc(-c3ccncc3)nc2N1` (configuration not stated), for which the z-score turned out to be 0.846.

`NC(=O)CSc1nc2scc(-c3ccco3)c2c(=O)n1-c1ccccc1`: the z-score was -0.118.

The compound `OC(CN1C2=NCCN2c2ccccc21)c1ccc(Br)cc1` (configuration not stated) gave a z-score of 0.254.

Take `NC(=O)c1ccc(-n2nnnc2Oc2ccccc2)cc1`: the z-score was -0.23.

`Cc1ccc(S(=O)(=O)CC(C)N2CCN(C3CCCCC3)CC2)cc1` (configuration not stated) had a z-score of 1.44.

As for `O=C(COC(=O)C12CC3CC(CC(C3)C1)C2)Nc1ncc(Cl)cc1Cl`, the z-score was -0.129.

Consider `Cc1nn(C(=O)c2ccco2)c(C)c1CN1C(=O)c2ccccc2C1=O`, for which the z-score was 0.109.

In the case of `O=C(Cc1c[nH]c2ccccc12)OCCOC(=O)Cc1c[nH]c2ccccc12`, the z-score is 0.897.

On to `CCN(CC)C(=O)c1cc(-c2ccccc2OC)on1`, for which the z-score was -0.301.

Consider `O=C(c1cc(C2CC2)on1)N1CCN(C(c2ccccc2)c2ccccc2)CC1`, for which the z-score worked out at 0.806.

`NC(=O)CC1(CC(=O)O)CCCCC1` yielded a z-score of 0.0592.

Compound `O=C(O)CCc1nn2cc(-c3ccccc3)nc2[nH]c1=O` displayed a z-score of 0.171.

As to `COc1cccc2[nH]c3c(N4CC(C)CC(C)C4)ncnc3c12` (configuration not stated), the z-score is -0.272.

Consider `O=S1(=O)CC2N=C(N(Cc3ccc(F)cc3Cl)c3ccccc3F)SC2C1` (configuration not stated), for which the z-score is -0.36.

`O=C(O)CCc1ccc(-c2ccc(F)cc2)n1CC1CCCO1` (configuration not stated) registered a z-score of 0.138.

In turn, `COc1ccccc1NC(=O)c1cccnc1` came in with a z-score of 0.226.

As for `CCC(C)NC(=O)c1cn(CC)c2ccc(S(=O)(=O)N(C)C)cc2c1=O` (configuration not stated), the z-score stood at 0.718.

On to `O=C(O)c1cccc(NS(=O)(=O)c2ccc3nnn(O)c3c2)c1`, for which the z-score was 0.0264.

`C/C(=N\N=C(/N)SC1CC(=O)N(c2ccc(Cl)c(Cl)c2)C1=O)c1cccs1` (configuration not stated) had a z-score of 0.068.

Consider `COc1ccc(NC(=O)Cn2c(-c3ccc(OC)cc3)cn(-c3ccc(C)cc3)c2=O)cc1`, for which the z-score was found to be 0.0343.

Consider `O=S(=O)(Nc1cccc(-c2cn3cccnc3n2)c1)c1ccc(-c2ccccc2)cc1`, for which the z-score is -0.14.

Turning to `CC(C)NC(=O)c1onc(CSc2cccc(Cl)c2)c1C(=O)O`, the z-score is -0.616.

`O=C(CSc1nnc(-c2cccnc2)o1)OC1CCCCC1` registered a z-score of 0.233.

Take `COc1ccc(/C=N\NC(=O)C2C(=O)NCC2c2ccccc2)cc1O` (configuration not stated): the z-score is -0.454.

As for `Fc1ccc(NC(=S)N2CCCC2)cc1`, the z-score is -0.0754.

`CSc1ncccc1C(=O)OCC(=O)N1CCOCC1`: the z-score is -0.0296.

On to `CCOC(=O)c1c(C)c(-c2ccccc2)n(CC(=O)N2CCCC2)c1C`, for which the z-score is -0.879.

In the case of `COc1ccc(-n2c(COc3cccc4ccccc34)nnc2SCC#N)cc1`, the z-score was determined as 0.112.

Regarding `COc1cc(-c2nc3cnccn3c2Nc2ccccc2)ccc1O`, the z-score is -1.02.

`CC(C)C(=O)Nc1ccc(NC(=O)c2cccnc2)cn1`: the z-score was -0.133.

Compound `Cc1ccc(S(=O)(=O)N(CC(=O)NCc2ccco2)Cc2ccc(F)cc2)cc1` showed a z-score of 1.39.

Take `O=C(c1ccc(Br)o1)N1CCCc2ccccc21`: the z-score is -0.269.

With `COCCn1c(SCC(=O)N2CC(=O)Nc3ccccc32)nnc1-c1ccoc1C`, the z-score is -1.06.

`Cc1ccc(NC(=O)c2ccc(C#CC3(O)CCCCC3)cc2)cc1C` displayed a z-score of 0.0635.

On to `Cc1sc(NC(=O)c2ccc(OCC(C)C)cc2)c(C(N)=O)c1-c1ccc(Cl)cc1Cl`, for which the z-score is -0.467.

Regarding `O=C(CCCCCCN1C(=O)c2ccccc2C1=O)N1CCC(c2ccccc2)C1` (configuration not stated), the z-score was -0.18.

For `CC1(C)CC(CC(=O)O)C(=O)O1` (configuration not stated), the z-score is -0.0347.

For the compound `Cc1ccc(NC(=O)CSc2ncccc2C(=O)Oc2cccc([N+](=O)[O-])c2)cc1Cl`, the z-score turned out to be 0.00133.

Compound `CCNS(=O)(=O)c1cc(Br)ccc1OC` yielded a z-score of 0.208.

The compound `CC(C)=CC(=O)OCC(=O)NC(=O)NC(C)(C)C` returned a z-score of 0.42.

Compound `COc1nc(-c2ccccc2)cc(C(F)(F)F)n1` yielded a z-score of 0.0363.

Consider `CN(C)c1nc(-c2ccccc2)nnc1C(F)(F)F`, for which the z-score was -0.148.

On to `CS(=O)(=O)c1nc(-c2ccccc2)cc(-c2ccccc2)c1C#N`, for which the z-score is -0.425.

In the case of `O=C(Cn1nnc(-c2ccccc2)n1)N=Nc1c(O)[nH]c2ccccc12`, the z-score was -0.0918.

On to `O=[N+]([O-])c1cc(C(F)(F)F)ccc1N/N=C/c1cc2ccccc2nc1Cl`, for which the z-score is 0.0742.

As to `COc1ccc(C2=NOC(C(=O)Nc3c(C)n(C)n(-c4ccccc4)c3=O)C2)cc1OC` (configuration not stated), the z-score is 0.047.

`COC(=O)CSc1ccccc1C(=O)OC` came in with a z-score of 0.099.

As for `CCCCSc1nnc(-c2cc3c(C(F)(F)F)nn(C)c3s2)n1C`, the z-score was -0.355.

Consider `COc1ccc2cnn(-c3ccc(C)cc3)c(=O)c2c1OC`, for which the z-score came out at 0.631.

Regarding `CCN(C(=O)Cc1cccs1)c1nnc(-c2cccnc2)s1`, the z-score was -0.0591.

On to `CCOC(=O)NNC(=O)c1ccc(Cl)cc1`, for which the z-score is -0.178.

As for `COc1ccccc1N1CCN(C(=O)CCNS(=O)(=O)c2ccc3c(c2)CCC(=O)N3)CC1`, the z-score was -0.0767.

Turning to `Cc1cc2oc(=O)cc(CN3CCN(S(=O)(=O)c4cccs4)CC3)c2cc1C(C)C`, the z-score is -0.253.

Regarding `CC1(C)Cc2ccccc2-c2nnc(-c3cccc(O)c3)n21`, the z-score is -0.189.

In the case of `O=C1C=CC(=O)N1N(c1ccccc1)c1ccccc1`, the z-score is -0.346.

As to `COc1ccccc1-c1cc(-c2cc(Cl)ccc2O)n[nH]1`, the z-score was -0.369.

On to `CCOC(=O)NC(NCCc1ccccc1)(C(F)(F)F)C(F)(F)F`, for which the z-score is 0.322.

As for `O=C(O)c1ccccc1NCN1C(=O)C2CC=C(Cl)CC2C1=O` (configuration not stated), the z-score was -0.567.

In the case of `CSc1ncc(C(=O)O)c(C)n1`, the z-score was 0.51.

In the case of `O=C(O)c1ccccc1C(=O)Nc1ccc(-c2csc(-c3ccccc3)n2)cc1`, the z-score was active: -3.01.

The compound `CCN(CC(=O)NC1CCS(=O)(=O)C1)S(=O)(=O)c1ccc(C)cc1C` (configuration not stated) came in with a z-score of 0.0233.

For `Cn1nnnc1NCc1c(F)cccc1Cl`, the z-score turned out to be 1.

Take `COc1ccc(Cl)cc1NC(=O)CSc1nnc(COc2ccccc2)n1N`: the z-score was -0.455.

For the compound `O=C(Nc1nc(-c2ccccn2)cs1)C1CC(=O)N(c2ccc3c(c2)OCCO3)C1` (configuration not stated), the z-score was -0.0555.

In turn, `O=C(Nc1nc2ccccc2s1)C1CC(=O)N(c2ccc(Br)cc2)C1` (configuration not stated) returned a z-score of 0.374.

Turning to `Cc1cccc(Cc2cnc(N3C(=N)SC(c4ccccc4)C3=O)s2)c1` (configuration not stated), the z-score is -2.12.

For `O=C1Nc2ccccc2/C1=C\c1cccn1-c1ccc(OC(F)(F)F)cc1`, the z-score stood at 2.45.

`CCCCn1c(N)c(N(CCOC)C(=O)CCc2ccc(OC)cc2)c(=O)[nH]c1=O` showed a z-score of 0.0193.

Consider `CC(=O)c1nn(-c2ccc(Br)cc2)cc1C(=O)c1ccco1`, for which the z-score was -0.914.

Turning to `C=CCNCCOCCOc1ccc(C)cc1[N+](=O)[O-]`, the z-score came out at 0.169.

For `CCOc1ccc(N(C(=O)Nc2ccccc2)C2=NCCC2)cc1`, the z-score was -0.321.

On to `CCOC(=O)C1CCN(C(=O)C2CC(=O)N(c3ccc(C)cc3)C2)CC1` (configuration not stated), for which the z-score is -0.384.

For `COc1ccc(C(=O)CSc2nnc(CNc3ccc(C)cc3C)o2)cc1`, the z-score was -0.0883.

As for `O=S(=O)(c1ccccc1)N1CCN(C(=S)Nc2ccc(F)cc2)CC1`, the z-score was active: 3.37.

Compound `Cc1ccnc(NC(=O)CCC2CCCCC2)c1` gave a z-score of 0.386.

In the case of `O=C(O)c1cccc(NC(=O)c2ccc3c(c2)C(=O)N(CC2CCCO2)C3=O)c1` (configuration not stated), the z-score is 1.47.

Regarding `CCOC(=O)CSc1nc2c(sc(=S)n2CCc2ccccc2)c(=O)n1Cc1ccco1`, the z-score is -0.162.

As for `Cc1ccc([N+](=O)[O-])cc1-c1[nH]c(-c2ccc(O)c(O)c2)nc1-c1ccccc1`, the z-score is -0.37.

`COc1cc2c3c(c1)C1(C(=O)N3C(C)(C)C=C2C)C(C#N)=C(N)Oc2cc(O)ccc21` (configuration not stated) registered a z-score of 0.429.

Regarding `O=C(CN1C(=O)c2ccccc2C1=O)N1CCN(C(=O)c2ccco2)CC1`, the z-score was -0.0354.

For `O=C(NCc1ccccc1Cl)c1cnc2n(c1=O)CCS2`, the z-score is -0.0692.

Regarding `O=C(Nc1cccc(-c2nnc(-c3ccccc3)o2)c1)C1CCCCC1`, the z-score was -0.0325.

The compound `Cc1ccccc1CN1CCCNC1=O` registered a z-score of 0.218.

Turning to `CCOC(=O)CC1C(=O)NCCN1C(=O)COc1ccc(Br)cc1C` (configuration not stated), the z-score was -0.651.

Turning to `O=C(O)c1cccc(NS(=O)(=O)/C=C/c2ccccc2)c1`, the z-score is -0.0762.

Turning to `COC(=O)c1ccc[n+](CC(=O)c2ccc(Br)cc2)c1`, the z-score is 0.198.

Turning to `CN(Cc1nc2ccccc2n1C)S(C)(=O)=O`, the z-score worked out at 0.318.

Take `O=C(CNS(=O)(=O)c1ccccc1Br)OCC(=O)N1CCc2ccccc21`: the z-score was -0.676.
